{"source": "paper PMC4336329", "about": "(PLoS ONE, 2015)", "note": "In all, about 310,000 compounds went through this assay and about 14,000 (4.5%) showed an effect of 50% or more. The effect is printed as a negative number. Some of the results follow.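 Note: peak tail current of the secondary pulse compared with the same well before compound.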", "data": [{"target": "human ether-à-go-go-related gene (hERG) potassium channel (human, UniProt Q12809)", "sequence (Q12809 whole entry, looked up)": "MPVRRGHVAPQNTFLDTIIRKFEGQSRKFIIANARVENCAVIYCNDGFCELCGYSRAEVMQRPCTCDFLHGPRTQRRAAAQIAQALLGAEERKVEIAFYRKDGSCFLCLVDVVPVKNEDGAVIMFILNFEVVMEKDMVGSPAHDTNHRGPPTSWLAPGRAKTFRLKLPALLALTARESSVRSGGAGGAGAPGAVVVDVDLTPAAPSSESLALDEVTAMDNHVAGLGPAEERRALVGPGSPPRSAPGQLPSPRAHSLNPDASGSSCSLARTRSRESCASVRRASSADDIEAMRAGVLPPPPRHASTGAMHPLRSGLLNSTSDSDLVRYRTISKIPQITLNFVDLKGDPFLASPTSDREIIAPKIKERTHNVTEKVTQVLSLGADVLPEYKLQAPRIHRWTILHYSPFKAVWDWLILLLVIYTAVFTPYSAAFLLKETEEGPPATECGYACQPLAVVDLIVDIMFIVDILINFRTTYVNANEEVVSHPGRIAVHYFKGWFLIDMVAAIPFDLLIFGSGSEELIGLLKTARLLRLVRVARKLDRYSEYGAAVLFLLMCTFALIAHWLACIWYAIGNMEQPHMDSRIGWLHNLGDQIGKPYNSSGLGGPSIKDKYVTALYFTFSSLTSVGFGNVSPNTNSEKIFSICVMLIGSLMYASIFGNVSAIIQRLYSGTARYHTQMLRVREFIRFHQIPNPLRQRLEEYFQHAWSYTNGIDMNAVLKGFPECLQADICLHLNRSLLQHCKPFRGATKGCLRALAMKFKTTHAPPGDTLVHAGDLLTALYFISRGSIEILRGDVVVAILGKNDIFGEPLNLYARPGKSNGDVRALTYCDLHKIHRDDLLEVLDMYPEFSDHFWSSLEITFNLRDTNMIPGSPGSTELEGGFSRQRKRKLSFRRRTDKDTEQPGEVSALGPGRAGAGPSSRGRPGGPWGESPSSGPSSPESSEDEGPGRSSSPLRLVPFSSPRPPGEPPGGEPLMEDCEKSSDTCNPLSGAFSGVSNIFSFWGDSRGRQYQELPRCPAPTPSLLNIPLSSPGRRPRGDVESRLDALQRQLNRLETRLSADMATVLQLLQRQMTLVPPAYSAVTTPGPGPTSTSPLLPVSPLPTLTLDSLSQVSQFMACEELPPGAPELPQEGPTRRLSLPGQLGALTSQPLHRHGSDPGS", "assay": "primary screen, population patch clamp on CHO cells stably expressing hERG", "units": {"hERG current change (%, negative = inhibition) at 10uM": "%"}, "values": [{"smiles": "Cc1noc(C)c1S(=O)(=O)N1CCCCC1", "hERG current change (%, negative = inhibition) at 10uM": 10.1}, {"smiles": "CCCOc1ccc(S(=O)(=O)n2cc(F)c(=O)[nH]c2=O)cc1", "hERG current change (%, negative = inhibition) at 10uM": 15.4}, {"smiles": "COc1ccc(CC(=O)OCC(=O)c2c(N)n(C)c(=O)n(C)c2=O)cc1OC", "hERG current change (%, negative = inhibition) at 10uM": -8.96}, {"smiles": "CCS(=O)(=O)N1CCC(C(=O)NCc2ccc3c(c2)OCO3)CC1", "hERG current change (%, negative = inhibition) at 10uM": -5.3}, {"smiles": "CCN(CC)CCn1c2ccc(F)cc2c2nc(C)sc21.Cl", "hERG current change (%, negative = inhibition) at 10uM": -54.3}, {"smiles": "CC1CCC(C(C)C)C(OC(=O)Cn2c(-c3ccc(Br)cc3)[n+](C)c3ccccc32)C1.[Cl-]", "note": "(centres unmarked)", "hERG current change (%, negative = inhibition) at 10uM": -78.3}, {"smiles": "C#CCOc1ccc(OC)cc1C(c1c(C)[nH][nH]c1=O)c1c(C)[nH][nH]c1=O", "hERG current change (%, negative = inhibition) at 10uM": 12.2}, {"smiles": "COc1ccc(CNC(=O)C(C)OC(=O)CO/N=C(\\C)c2ccc3c(c2)OCO3)cc1", "note": "(centres unmarked)", "hERG current change (%, negative = inhibition) at 10uM": -14.1}, {"smiles": "O=C(NC1(O)C(=O)c2ccccc2C1=O)c1ccc(C(F)(F)F)cc1", "hERG current change (%, negative = inhibition) at 10uM": 11.7}, {"smiles": "CCCn1c(C)cc(C(=O)COC(=O)c2ccc[nH]c2=O)c1C", "hERG current change (%, negative = inhibition) at 10uM": 15}, {"smiles": "COc1ccc(NC(=O)CC2C(=O)N(Cc3ccccc3)C(=S)N2CCN2CCOCC2)cc1", "note": "(centres unmarked)", "hERG current change (%, negative = inhibition) at 10uM": -36.5}, {"smiles": "CC(C)[C@H](NC(=O)C1CCN(S(=O)(=O)c2ccc(F)cc2)CC1)C(=O)NCc1ccncc1", "hERG current change (%, negative = inhibition) at 10uM": 14.2}, {"smiles": "O=C(/C=C/c1ccccc1)NC(=S)NNC(=O)c1ccco1", "hERG current change (%, negative = inhibition) at 10uM": 23.7}, {"smiles": "CCN(C(=O)COC(=O)c1cc2ccccc2cc1O)C1CCS(=O)(=O)C1", "note": "(centres unmarked)", "hERG current change (%, negative = inhibition) at 10uM": -8.53}, {"smiles": "COc1ccc(COC(=O)Nc2cn(C)nc2C(F)(F)F)cc1", "hERG current change (%, negative = inhibition) at 10uM": -7.76}, {"smiles": "CC(C(=O)NC1=NCCS1)N1C(=O)C2CC=CCC2C1=O", "note": "(centres unmarked)", "hERG current change (%, negative = inhibition) at 10uM": 18.7}, {"smiles": "Cn1c(SCc2ccon2)nc2ccccc2c1=O", "hERG current change (%, negative = inhibition) at 10uM": -5.87}, {"smiles": "COc1ccc(CCN(C)Cc2ccc(OCc3ccccc3)c(OC)c2)cc1OC", "hERG current change (%, negative = inhibition) at 10uM": -74.3}, {"smiles": "CC(=O)c1cccc(NC(=O)C2COc3ccccc3O2)c1", "note": "(centres unmarked)", "hERG current change (%, negative = inhibition) at 10uM": -0.556}, {"smiles": "CCC(C)[C@H]1CN=C(N)N1CCc1cccc2ccccc12", "note": "(some centres unmarked)", "hERG current change (%, negative = inhibition) at 10uM": -16.6}, {"smiles": "CC1=CC(=C2C(=O)c3ccccc3C2=O)C=C(C)O1", "hERG current change (%, negative = inhibition) at 10uM": 0.136}, {"smiles": "COc1ccc(NCc2nnc(SCCN3CCCCC3)n2-c2ccc(C)cc2)cc1", "hERG current change (%, negative = inhibition) at 10uM": -66.7}, {"smiles": "CC1CCCC(NC(=O)CSc2nnc(C(F)(F)F)n2C)C1C", "note": "(centres unmarked)", "hERG current change (%, negative = inhibition) at 10uM": 10.7}, {"smiles": "Cc1cccc(N2C(=O)c3ccccc3C2=O)n1", "hERG current change (%, negative = inhibition) at 10uM": 18.1}, {"smiles": "COc1cccc(OCCCOc2ccc([N+](=O)[O-])cc2Cl)c1", "hERG current change (%, negative = inhibition) at 10uM": 4.29}, {"smiles": "O=C(NC(Oc1ccccc1)C(Cl)(Cl)Cl)c1ccccc1", "note": "(centres unmarked)", "hERG current change (%, negative = inhibition) at 10uM": 16.6}, {"smiles": "CC(=O)Nc1cc(S(=O)(=O)C(F)(F)F)ccc1Cl", "hERG current change (%, negative = inhibition) at 10uM": 2.32}, {"smiles": "Cc1nonc1OCC(C)(COc1nonc1C)NC(=O)c1ccccc1", "hERG current change (%, negative = inhibition) at 10uM": -6.59}, {"smiles": "CC(C)c1ccc(NC(=O)C[n+]2ccn(C3=C([O-])c4ccccc4C3=O)c2)cc1", "hERG current change (%, negative = inhibition) at 10uM": 29.1}, {"smiles": "Cc1cc(N2CCOCC2)nc(N2CCOCC2)n1", "hERG current change (%, negative = inhibition) at 10uM": 6.64}, {"smiles": "CN(C)C(=O)Cn1cc(S(=O)(=O)Cc2ccccc2)c2ccccc21", "hERG current change (%, negative = inhibition) at 10uM": 7.58}, {"smiles": "O=C(c1ccccc1-c1nc(-c2ccc(F)cc2)no1)N1CCCC1", "hERG current change (%, negative = inhibition) at 10uM": -30.8}, {"smiles": "CCOC(=O)c1cc2c(nc1N)CC(C)(CC)OC2", "note": "(centres unmarked)", "hERG current change (%, negative = inhibition) at 10uM": 7.05}, {"smiles": "CCCS(=O)(=O)N1CCC(C(=O)N2CCN(Cc3ccccc3)CC2)CC1", "hERG current change (%, negative = inhibition) at 10uM": -3.37}, {"smiles": "COc1cccc(CN2C(=O)[C@H]3Cc4c([nH]c5ccccc45)C(C)(C)N3C2=O)c1", "hERG current change (%, negative = inhibition) at 10uM": 4.46}, {"smiles": "Cc1nn(S(=O)(=O)c2ccc(Cl)cc2)c(C)c1Sc1ccc([N+](=O)[O-])cc1", "hERG current change (%, negative = inhibition) at 10uM": 2.75}, {"smiles": "O=C(C[n+]1ccc(-c2cc(C(=O)Nc3cccc(C(F)(F)F)c3)c3ccccc3n2)cc1)c1cccc([N+](=O)[O-])c1.[Br-]", "hERG current change (%, negative = inhibition) at 10uM": 6.74}, {"smiles": "Cc1ccc(OCc2cc(C(=O)NCC(C)(C)N3CCOCC3)no2)cc1C", "hERG current change (%, negative = inhibition) at 10uM": -45.8}, {"smiles": "O=C(NCc1nnc(SCc2ccccc2)n1-c1ccc(F)cc1)C12CC3CC(CC(C3)C1)C2", "hERG current change (%, negative = inhibition) at 10uM": 3.29}, {"smiles": "O=C(c1ccc(Br)cc1)c1cc2ccc(O)cc2oc1=O", "hERG current change (%, negative = inhibition) at 10uM": 2.42}, {"smiles": "COc1ccc(-c2nc(C#N)c(N3CCc4ccccc4C3)o2)cc1OC", "hERG current change (%, negative = inhibition) at 10uM": -9.26}, {"smiles": "Cc1ccc(C)c(NC(=O)CCOc2ccccc2)c1", "hERG current change (%, negative = inhibition) at 10uM": 14.5}, {"smiles": "CCc1n[nH]c(CCN)n1.Cl", "hERG current change (%, negative = inhibition) at 10uM": 12.1}, {"smiles": "CCOc1ccccc1C(=O)N1CCN(c2cccc(Cl)c2)CC1", "hERG current change (%, negative = inhibition) at 10uM": -12.5}]}]}
